Drawing on the supplement of paper PMC10369915, this text covers enrichment score for 19 molecules.

The other results are listed elsewhere or left out. Rule as the data show it: active = 3.2 or more and inactive = the rest. The signal is at background level for most entries.

Targets include SHP2 C-SH2 domain E139D; SHP2 N-SH2 domain L43F; SHP2 N-SH2 domain T42A; SHP2 N-SH2 domain T52S.
Common to all, as to assay: enrichment score (SH2-bound / input frequency) (ratio); bacterial display of known human phosphotyrosine sites (pTyr-Var adds point mutants) read by sequencing; higher = stronger binding; tyrosines were phosphorylated by kinases first
Conditions in all cases: peptide library: Human pTyr

The target in experiment [1] is SHP2 C-SH2 domain wild-type.
The target in experiment [2] is SHP2 N-SH2 domain wild-type.
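Also: displayed peptides selected on beads carrying the immobilized SH2 domain, with library peptides lacking any tyrosine serving as negative controls.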

Consider CFSKDKVAGDFFKVC [NegativeControl11_Ala], for which the enrichment score with SHP2 C-SH2 domain E139D is inactive: 0.964; in experiment [1], inactive: 0.985; in the experiment with SHP2 N-SH2 domain L43F, inactive: 1.07; in the experiment with SHP2 N-SH2 domain T42A it was inactive: 0.722; with SHP2 N-SH2 domain T52S it was inactive: 0.863; in experiment [2], inactive: 0.87.
In the case of AGHQDNFAFAIPIGN [NegativeControl10_Ala], the enrichment score with SHP2 C-SH2 domain E139D is inactive: 0.74; in experiment [1], inactive: 0.688; with SHP2 N-SH2 domain L43F it was inactive: 1.12; with SHP2 N-SH2 domain T42A it was inactive: 0.751; in the experiment with SHP2 N-SH2 domain T52S, inactive: 1.23; in experiment [2], inactive: 0.871.
In the case of TLQQRCFANPNFTST [NegativeControl12_Ala], the enrichment score is inactive: 1.07 with SHP2 C-SH2 domain E139D; inactive: 1.07 in experiment [1]; inactive: 1.17 in the experiment with SHP2 N-SH2 domain L43F; inactive: 0.964 with SHP2 N-SH2 domain T42A; inactive: 1.39 with SHP2 N-SH2 domain T52S; inactive: 1.34 in experiment [2].
On to GQLTFLNFGFMTHNA [NegativeControl01_Phe], for which the enrichment score is inactive: 2.09 with SHP2 C-SH2 domain E139D; inactive: 2.19 in experiment [1]; inactive: 2.18 with SHP2 N-SH2 domain L43F; inactive: 1.28 with SHP2 N-SH2 domain T42A; inactive: 1.98 with SHP2 N-SH2 domain T52S; inactive: 1.88 in experiment [2].
Regarding FTLRCPCFLLCMCES [NegativeControl03_Phe], the enrichment score was inactive: 2.25 in the experiment with SHP2 C-SH2 domain E139D; inactive: 2.33 in experiment [1]; inactive: 2.28 with SHP2 N-SH2 domain L43F; inactive: 2.27 with SHP2 N-SH2 domain T42A; inactive: 2.37 with SHP2 N-SH2 domain T52S; inactive: 3.12 in experiment [2].
For FDFSGWKFDHAAATP [NegativeControl02_Phe], the enrichment score with SHP2 C-SH2 domain E139D is inactive: 0.989; in experiment [1], inactive: 0.987; in the experiment with SHP2 N-SH2 domain L43F, inactive: 0.844; with SHP2 N-SH2 domain T42A, inactive: 1.18; in the experiment with SHP2 N-SH2 domain T52S it was inactive: 0.982; in experiment [2] it was inactive: 0.923.
Take KMAPFATASFWAQCI [NegativeControl08_Ala]: the enrichment score is inactive: 1.42 with SHP2 C-SH2 domain E139D; inactive: 1.29 in experiment [1]; inactive: 1.3 with SHP2 N-SH2 domain L43F; inactive: 1.34 in the experiment with SHP2 N-SH2 domain T42A; inactive: 1.4 with SHP2 N-SH2 domain T52S; inactive: 1.56 in experiment [2].
Take SVHDAFEACPEFWDK [NegativeControl04_Ala]: the enrichment score in the experiment with SHP2 C-SH2 domain E139D was inactive: 1.05; in experiment [1] it was inactive: 0.777; with SHP2 N-SH2 domain L43F, inactive: 0.939; in the experiment with SHP2 N-SH2 domain T42A it was inactive: 1; in the experiment with SHP2 N-SH2 domain T52S, inactive: 1.1; in experiment [2], inactive: 0.951.
For the molecule AGHQDNFFFAIPIGN [NegativeControl10_Phe], the enrichment score with SHP2 C-SH2 domain E139D was inactive: 0.802; in experiment [1] it was inactive: 1.03; in the experiment with SHP2 N-SH2 domain L43F, inactive: 1.24; with SHP2 N-SH2 domain T42A, inactive: 1.38; with SHP2 N-SH2 domain T52S, inactive: 0.981; in experiment [2], inactive: 1.51.
In the case of FCTVFFNADWLTWPP [NegativeControl07_Ala], the enrichment score with SHP2 C-SH2 domain E139D was inactive: 2.26; in experiment [1], inactive: 2.07; with SHP2 N-SH2 domain L43F, inactive: 2.11; in the experiment with SHP2 N-SH2 domain T42A, inactive: 2.07; with SHP2 N-SH2 domain T52S it was inactive: 2.42; in experiment [2], inactive: 2.68.
On to VREDAVLYLLEIPKG [ZO2_HUMAN_574], for which the enrichment score in the experiment with SHP2 C-SH2 domain E139D was inactive: 1.37; in experiment [1] it was inactive: 1.32; with SHP2 N-SH2 domain L43F, inactive: 1.16; with SHP2 N-SH2 domain T42A, inactive: 1.35; with SHP2 N-SH2 domain T52S, inactive: 1.37; in experiment [2], inactive: 1.5.
FFKVPELYEIHKEFA [BCR_HUMAN_554_YA]: the enrichment score in the experiment with SHP2 C-SH2 domain E139D was inactive: 1.67; in experiment [1], inactive: 1.28; with SHP2 N-SH2 domain L43F, inactive: 1.48; in the experiment with SHP2 N-SH2 domain T42A, inactive: 1.29; with SHP2 N-SH2 domain T52S, inactive: 1.22; in experiment [2] it was inactive: 1.49.
As to TLQQRCFFNPNFTST [NegativeControl12_Phe], the enrichment score in the experiment with SHP2 C-SH2 domain E139D was inactive: 0.978; in experiment [1] it was inactive: 0.986; with SHP2 N-SH2 domain L43F, inactive: 1.19; with SHP2 N-SH2 domain T42A, inactive: 1.44; in the experiment with SHP2 N-SH2 domain T52S, inactive: 1.24; in experiment [2], inactive: 1.68.
In the case of IVMSRAKANGDSKVN [NegativeControl09_Ala], the enrichment score with SHP2 C-SH2 domain E139D is inactive: 0.713; in experiment [1] it was inactive: 0.607; with SHP2 N-SH2 domain L43F, inactive: 0.628; with SHP2 N-SH2 domain T42A, inactive: 0.613; in the experiment with SHP2 N-SH2 domain T52S, inactive: 0.67; in experiment [2], inactive: 0.673.
In the case of FCTVFFNFDWLTWPP [NegativeControl07_Phe], the enrichment score in the experiment with SHP2 C-SH2 domain E139D was inactive: 2.91; in experiment [1] it was inactive: 2.8; in the experiment with SHP2 N-SH2 domain L43F, inactive: 3.11; in the experiment with SHP2 N-SH2 domain T42A, inactive: 2.33; with SHP2 N-SH2 domain T52S, active: 3.35; in experiment [2], inactive: 3.08.
Turning to IVMSRAKFNGDSKVN [NegativeControl09_Phe], the enrichment score with SHP2 C-SH2 domain E139D is inactive: 0.741; in experiment [1] it was inactive: 0.601; with SHP2 N-SH2 domain L43F, inactive: 0.718; with SHP2 N-SH2 domain T42A, inactive: 0.667; with SHP2 N-SH2 domain T52S, inactive: 0.636; in experiment [2], inactive: 0.669.
NSLETLLYKPVDRVT [BCR_HUMAN_644]: the enrichment score with SHP2 C-SH2 domain E139D is inactive: 0.614; in experiment [1], inactive: 0.753; with SHP2 N-SH2 domain L43F, inactive: 0.641; in the experiment with SHP2 N-SH2 domain T42A it was inactive: 0.744; in the experiment with SHP2 N-SH2 domain T52S it was inactive: 0.596; in experiment [2], inactive: 0.717.
Consider AQKHPDIYAVPIKTH [ZO2_HUMAN_1118], for which the enrichment score in the experiment with SHP2 C-SH2 domain E139D is inactive: 2.1; in experiment [1] it was inactive: 1.09; in the experiment with SHP2 N-SH2 domain L43F, inactive: 1.24; with SHP2 N-SH2 domain T42A it was inactive: 1.33; in the experiment with SHP2 N-SH2 domain T52S, inactive: 1.4; in experiment [2], inactive: 1.72.
On to VEDNDENYIHPTESS [BLNK_HUMAN_189], for which the enrichment score with SHP2 C-SH2 domain E139D is inactive: 1.23; in experiment [1], inactive: 1.6; in the experiment with SHP2 N-SH2 domain L43F, inactive: 1.03; with SHP2 N-SH2 domain T42A, inactive: 0.943; in the experiment with SHP2 N-SH2 domain T52S, inactive: 1.67; in experiment [2], inactive: 1.27.
